The values below come from PMC9933715 (Antimicrobial Agents and Chemotherapy, 2023).

Test [1] concerns sg-DENV-R2A subgenomic replicon. The conditions noted are these: Huh7.5; for decrease of sg-DENV-R2A replication: 50 μM, treated for 2 days.
Test [2] concerns DENV-R2A full RNA genome. The conditions noted are these: NPP3C/6A1HI 50 μM, NITD008 10 μM, Huh7.5.
In test [3] the test system is sg-DENV-R2A GND. The conditions noted are these: 50 μM, 4 h posttransfection, vs DMSO.
Test [4] has as its system DENV-R2A (Rluc-expressing DENV, serotype 2 strain 16681). It counts as cell-based, Dengue virus. The conditions noted are these: NITD008 10 μM, Huh7.5.

Turning to `CC(=O)c1ccc2cn[nH]c2c1` [Compound 6A1HI, 6-acetyl-1H-indazole], the “decrease of sg-DENV-R2A replication” value in test [1] is about 2.7 Log10. Also, the “DENV replication after electroporation of full-length DENV-R2A vRNA” value (“DENV replication after electroporation” below) in test [2] is given as “severely impacted”. The “Rluc activity as read-out of viral RNA translation” value in test [3] was “remained unchanged”.

As for `O=C(Nc1ccccc1)c1cccnc1` [NPP3C, N-phenylpyridine-3-carboxamide], the “decrease of sg-DENV-R2A replication” value in test [1] was “approximately 1.3 Log10”. Besides, the “DENV replication after electroporation” value in test [2] is “severely impacted”. For the same molecule, in test [3], the “Rluc activity as read-out of viral RNA translation” value was “remained unchanged”.

As for `C#C[C@@]1(O)[C@H](O)[C@@H](CO)O[C@H]1n1ccc2c(N)ncnc21` [NITD008, reference compound], in test [4], the “inhibition of DENV replication (internal control)” value is recorded as “potently inhibited DENV replication”. The “sg-DENV-R2A replication under control inhibitor” value in test [1] (NITD008 10 μM) is on record as “very little replication, if any”. Moreover, the “DENV replication after electroporation” value in test [2] is “almost completely abrogated”.
